Where “and” joins values, the source holds several entries; their conditions need not be identical. Equal values may be shown once. Among all 410,000 compounds or so, about 5,000 (1.2%) were called active. Inconclusive means that the source gave no clear call. Such entries were picked first, then a sample of the others. Calls come from the whole dose curve; as a rule, active = well fitted inhibition curve with a large enough effect; inconclusive = small, poorly fitted or top-dose-only effect; inactive = no such curve, though single readings can be large or run the other way. Where the call is inconclusive, the potency comes from a doubtful curve fit.
Experiment: qHTS for Inhibitors of TGF-b; note: nearly all actives have a fitted effect of over 65% in size
Settings: HepG2 CAGA-GFP TGF-b/SMAD3 reporter, GFP fluorescence, 18 h, TGF-beta stimulated, 500 pg/mL final; series mostly up to 46.1 µM; activity, negative = inhibition: at the top concentration
Outline: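 Inhibition of TGF-beta-driven CAGA-GFP reporter expression in HEPG2 cells is measured by cellular GFP fluorescence after 18 h stimulation with 500 pg/mL recombinant TGF-beta in 1% FBS medium at 37 degrees C.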
% is set by controls: 0 for no effect and ±100 for the full control effect; potency is the fitted concentration of half-maximal effect; tags give direction and shape of the fitted curve.

With CCc1ccc(NC(=O)c2ccc(F)c(S(=O)(=O)NCCc3ccc(OC)c(OC)c3)c2)cc1 as the molecule, how does the Potency read?
The Potency was inconclusive: 11.2 µM [inhibitor, partial curve].

Which “activity, negative = inhibition” value does the source give for O=c1cc(SCc2ccc(Cl)cc2Cl)nc[nH]1 here?
Its value is inactive: -7.05%.

Which Potency does the source give for CC(=O)C1=CCC(c2ccc(C(C)C)cc2)N(S(=O)(=O)c2ccc(C)cc2)C1 (stereo not drawn) here?
Its Potency is inconclusive: 35.5 µM [inhibitor, partial curve, poor fit].

For Cc1ccc(CNC(=O)c2c(-c3ccccc3)sc3ccccc23)o1, which Potency is on record?
The Potency was inconclusive: 11.2 µM [inhibitor, single point].

For CCS(=O)(=O)c1ncc(Cl)c(C(=O)N(Cc2ccccc2)c2ccc(OC)cc2)n1, which Potency is on record?
Its Potency is active: 3.16 µM.

Which Potency does the source give for O=C(CN1CCN(S(=O)(=O)c2ccc(F)cc2)CC1)Nc1ccc(Cl)c(C(F)(F)F)c1 here?
The Potency was inconclusive: 3.16 µM [inhibitor, full curve, poor fit].

For O=C(N/N=C1\CC2CC=CC12)c1ccc(Br)cc1 (stereo not drawn), which “activity, negative = inhibition” value is on record?
Its value is inactive: -1.03%.

With COc1ccc(C(c2c(C)[nH]n(C(N)=S)c2=O)C(C#N)C#N)cc1 (stereo not drawn) as the molecule, how does the Potency read?
Its Potency is inconclusive: 31.6 µM [inhibitor, single point].

For CN(CC(=O)Nc1ccc(Cl)c(C(F)(F)F)c1)CC(=O)NC1CCCCC1, which Potency is on record?
The Potency was inconclusive: 15.8 µM [inhibitor, single point].

With CCOc1ccc2c(c1)c(=O)c(C(=O)c1ccc(C)cc1)cn2Cc1ccccc1OC as the molecule, how does the Potency read?
Its Potency is inconclusive: 35.5 µM [inhibitor, single point].

With CC(C)c1ccc(NC(=O)Cn2c(=O)n(Cc3nc(-c4ccccc4)no3)c(=O)c3cc4c(cc32)OCO4)cc1 as the molecule, how does the “activity, negative = inhibition” value read?
Its value is inactive: -4.03%.

Which “activity, negative = inhibition” value does the source give for COCCn1ccc(O)c(Cc2ccccc2)c1=O here?
Its value is inactive: 2.87%.

For COc1ccc2c(C#N)c3ccccn3c2c1, which “activity, negative = inhibition” value is on record?
Its value is inactive: -12.2%.

For NC(=O)c1ccc(NC(=O)CSc2nnc(C3CC3)n2C2CC2)cc1, which “activity, negative = inhibition” value is on record?
The value was inactive: 9.01%.

With FC(F)C(F)(F)c1cc(-c2ccc(Cl)cc2)n[nH]1 as the molecule, how does the Potency read?
Its Potency is inconclusive: 22.4 µM [inhibitor, partial curve, poor fit].

With CC(C)N(C(=O)CSc1nc(COc2ccccc2)nc2ccccc12)C(C)C as the molecule, how does the Potency read?
The Potency was inconclusive: 35.5 µM [inhibitor, single point].

With CN1CC=C2C(C#N)=C(N)C(C#N)(C#N)[C@H](c3cccc(Cl)c3)C2C1 (stereo partly drawn) as the molecule, how does the “activity, negative = inhibition” value read?
The value was inactive: 87.6%.

With Cc1cc(C)cc(-n2ccnc2SCC(=O)Nc2nc3ccc(C)cc3s2)c1 as the molecule, how does the “activity, negative = inhibition” value read?
The value was inactive: -21.7%.

For CCOc1ncccc1C(=O)NCc1ccccc1F, which “activity, negative = inhibition” value is on record?
Its value is inactive: -1.37%.

For CC1(C)Cc2ccccc2-c2nnc(SCC(=O)N3CCN(c4ccccc4)CC3)n21, which Potency is on record?
The Potency was inconclusive: 15.8 µM [inhibitor, single point].

Which Potency does the source give for O=C(c1ccccc1)c1ccccc1N1C(=O)C=CC1=O here?
Its Potency is inconclusive: 28.2 µM [inhibitor, single point].

With CCOC(=O)c1c(C)[nH]c(CCC(=O)NCCCN2CCN(c3ccccc3F)CC2)c1C as the molecule, how does the Potency read?
The Potency was inconclusive: 35.5 µM [inhibitor, single point].

For O=C(Nc1nnc(S(=O)(=O)N2CCc3ccccc32)s1)c1ccccc1Cl, which Potency is on record?
The Potency was inconclusive: 8.91 µM [inhibitor, partial curve, poor fit].

With Cn1c(=O)c2c(nc(NCc3ccco3)n2CC(O)CO)n(C)c1=O (stereo not drawn) as the molecule, how does the “activity, negative = inhibition” value read?
Its value is inactive: 1.66%.

For Cc1sc2ncnc(N3CCC(C(=O)Nc4cc(C(F)(F)F)ccc4OCC(F)(F)F)CC3)c2c1C, which Potency is on record?
Its Potency is inconclusive: 35.5 µM [inhibitor, single point].

With CCn1c(Cc2ccccc2)nnc1SCC(=O)Nc1nc(C)cs1 as the molecule, how does the Potency read?
The Potency was inconclusive: 35.5 µM [inhibitor, single point].

Which Potency does the source give for Cc1c2cnn(CC(=O)N3CCN(c4ccc(F)cc4)CC3)c(=O)c2c(C)n1Cc1ccccc1F here?
Its Potency is inconclusive: 20 µM [inhibitor, partial curve, poor fit].

For O=[N+]([O-])c1cnc(Nc2ccc(Cl)cn2)c([N+](=O)[O-])c1, which Potency is on record?
The Potency was inconclusive: 22.4 µM [inhibitor, single point].

With O=C(COC(=O)Cn1cnc2ccccc2c1=O)Nc1ccccc1OC(F)F as the molecule, how does the “activity, negative = inhibition” value read?
The value was inactive: 0%.

For CC(C)OCCCN1C(=O)c2[nH]nc(-c3ccccc3O)c2C1c1cccc(OCc2ccccc2)c1 (stereo not drawn), which Potency is on record?
Its Potency is inconclusive: 11.2 µM [inhibitor, partial curve, poor fit].

With CCN(CC)S(=O)(=O)c1ccc(N)cc1 as the molecule, how does the “activity, negative = inhibition” value read?
The value was inactive: -5.57%.

With Cc1ccc(Nc2nc(CSc3nnnn3-c3ccccc3)cc(=O)[nH]2)cc1 as the molecule, how does the Potency read?
Its Potency is inconclusive: 35.5 µM [inhibitor, single point].

For COC1=C(C)C(=O)C2=C(C1=O)C1C3CC4=C(C(=O)C(OC)=C(C)C4=O)C(CNC(=O)C(C)=O)N3C(C#N)C(C2)N1C (stereo not drawn), which Potency is on record?
The Potency was active: 0.141 µM.

For N#Cc1cccc(NC(=O)CCNS(=O)(=O)c2ccc3c(c2)CCN3C(=O)C2CC2)c1, which “activity, negative = inhibition” value is on record?
The value was inactive: 6.8%.

With CN(CCO)c1cc(NCCCN2CCC(Cc3ccccc3)CC2)c2nonc2c1[N+](=O)[O-] as the molecule, how does the “activity, negative = inhibition” value read?
Its value is inactive: 0.307%.

For O=C1CC(c2ccco2)c2ccc3ccccc3c2N1 (stereo not drawn), which Potency is on record?
The Potency was inconclusive: 35.5 µM [inhibitor, single point].

For Cc1ccc2c(c1)C(c1ccc(F)cc1)N(C(=O)c1cccc(C(F)(F)F)c1)CC(=O)N2 (stereo not drawn), which Potency is on record?
The Potency was inconclusive: 25.1 µM [inhibitor, single point].

With COc1ccc(CN2CCN(S(=O)(=O)c3ccc(C)cc3)CC2)cc1Br as the molecule, how does the Potency read?
The Potency was inconclusive: 35.5 µM [inhibitor, single point].

Which Potency does the source give for COc1cccc(N2CCN(Cc3cc(=O)oc4cc(C)ccc34)CC2)c1 here?
Its Potency is inconclusive: 35.5 µM [inhibitor, single point].

For O=C(O)CNS(=O)(=O)c1ccc(F)cc1, which Potency is on record?
The Potency was inconclusive: 15.8 µM [inhibitor, single point].

With COc1ccc(C(=O)OCC(=O)N2CCN(C(=O)c3ccco3)CC2)c(OC)c1OC as the molecule, how does the “activity, negative = inhibition” value read?
The value was inactive: 0.533%.

With O=C(CC1Nc2cccc3cccc(c23)NC1=O)Nc1ccc(F)cc1 (stereo not drawn) as the molecule, how does the Potency read?
The Potency was inconclusive: 35.5 µM [inhibitor, single point] and inconclusive: 17.8 µM [inhibitor, single point].

Which Potency does the source give for COc1ccc(Cl)cc1-n1c(=S)sc2c(=O)[nH]c(SCC(=O)C(C)(C)C)nc21 here?
Its Potency is inconclusive: 28.2 µM [inhibitor, single point].

Source: PubChem BioAssay AID588855 (National Center for Advancing Translational Sciences (NCATS), 2011)
